Data: PubChem BioAssay AID886 (National Center for Advancing Translational Sciences (NCATS), 2007)
Screen size: about 73,000 compounds; about 2,500 (3.4%) were called active. The shares of active, inactive and inconclusive entries below differ from those in the screen. Calls come from the whole dose curve; as a rule, active = well fitted inhibition curve with a large enough effect; inconclusive = small, poorly fitted or top-dose-only effect; inactive = no such curve, though single readings can be large or run the other way. A potency beside an inconclusive call is a rough fit, not a confirmed value.
% is set by controls: 0 for no effect and ±100 for the full control effect; potency is the fitted concentration of half-maximal effect; tags give direction and shape of the fitted curve.
Note: nearly all actives have a fitted effect of over 60% in size.

The molecules below were run against 3-hydroxyacyl-CoA dehydrogenase type-2 (Homo sapiens) (UniProt Q99714) (assay: qHTS Assay for Inhibitors of HADH2 (Hydroxyacyl-Coenzyme A Dehydrogenase, Type II)). Conditions: recombinant HADH2, NADH fluorescence, beta-hydroxybutyryl-CoA; activity change, negative = inhibition: at 57.1 µM (top of the series).
Sequence of UniProt Q99714 (Q99714 whole entry, looked up): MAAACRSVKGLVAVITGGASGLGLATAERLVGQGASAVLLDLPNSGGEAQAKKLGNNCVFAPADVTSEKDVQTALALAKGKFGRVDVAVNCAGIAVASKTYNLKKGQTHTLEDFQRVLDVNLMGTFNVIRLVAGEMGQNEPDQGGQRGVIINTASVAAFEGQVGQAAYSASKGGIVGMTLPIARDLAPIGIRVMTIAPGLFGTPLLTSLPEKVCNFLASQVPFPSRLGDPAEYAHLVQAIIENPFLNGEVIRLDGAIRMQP
Sequence of UniProt Q99714 (Q99714 whole entry, looked up): as above
Summary of the method: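 NADH fluorescence (ex 360/em 450 nm) read every 30 s for 4 min; activity taken as last-minus-first time point difference. Enzyme 20 nM, NAD+ 1 mM, beta-hydroxybutyryl-CoA 90 uM, pH 9.0 Tris buffer.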
With `COc1ccccc1CNc1ccnc(-c2ccccc2C(F)(F)F)n1` the Potency was inconclusive: 39.8 µM [inhibitor, single point].
In the case of `COC(=O)c1ccc(C(NC(=O)OCc2ccccc2)/C(=C/[C@@H](C)C(=O)NC2CCCCC2)c2cccnc2)cc1` (some centres not stated), the “activity change, negative = inhibition” value is reported as inactive: -1.86%.
With `CCC(C)NC(=O)c1c(N)n(/N=C/c2ccccn2)c2nc3ccccc3nc12` (configuration not stated) the “activity change, negative = inhibition” value was inactive: -26.6%.
`O=C(O)c1ccccc1SC1CC(=O)N(C2CCCCC2)C1=O` (configuration not stated) was tested, and the Potency was inconclusive: 12.6 µM [inhibitor, partial curve].
With `Cc1cc(C)c2c(n1)nn1c(C)c(CCC(=O)NCc3ccco3)c(C)nc21` the “activity change, negative = inhibition” value was inactive: -16.6%.
In the case of `CN1CCN(CC(O)COCc2ccc3c(c2)OCO3)CC1` (configuration not stated), the Potency is reported as inconclusive: 39.8 µM [inhibitor, single point].
In the case of `O=C(c1ccc2c3c(cccc13)CC2)N1CCOCC1`, the Potency is reported as inconclusive: 31.6 µM [inhibitor, single point].
With `COC(=O)C1=C(C)NC2=C(C(=O)CC(C)(C)C2)C1c1cccc(C)n1` (configuration not stated) the Potency was active: 25.1 µM.
In the case of `COC(=O)c1c(-c2ccc(F)cc2)csc1NC(=O)c1ccco1`, the Potency is reported as active: 5.01 µM.
In the case of `CC1Cc2ccccc2N1C(=O)c1ccnc(C(C)(C)C)c1` (configuration not stated), the “activity change, negative = inhibition” value is reported as inactive: 0.731%.
`Cc1nc(NCc2ccccc2)c2nc(-c3ccccc3)n(CCN(C)C)c2n1` was tested, and the Potency was inconclusive: 31.6 µM [inhibitor, single point].
In the case of `CCN(CC)c1ccc(NC(=O)CC2Oc3ccccc3NC2=O)c(C)c1` (configuration not stated), the Potency is reported as inconclusive: 15.8 µM [inhibitor, partial curve].
In the case of `COc1ccccc1CNc1nc(-c2ccc3c(c2)OCO3)nc2ccccc12`, the Potency is reported as inconclusive: 25.1 µM [inhibitor, single point].
With `CCNc1ncc2ncc(=O)n(Cc3cccs3)c2n1` the Potency was inconclusive: 25.1 µM [inhibitor, single point].
For `Cc1onc(-c2ccccc2Cl)c1C(=O)Nc1nn[nH]n1`, the “activity change, negative = inhibition” value was inactive: 2.27%.
In the case of `CCc1nc(SCc2ccc(C(=O)OC)o2)c2c(=O)n(C)c(=O)n(C)c2n1`, the “activity change, negative = inhibition” value is reported as inactive: 4.34%.
`CCc1cc2c(CN3CCN(CC)CC3)cc(=O)oc2cc1O` was tested, and the Potency was active: 31.6 µM.
With `CCOC(=O)C(C(=O)OCC)c1cc(Br)c2noc3c2c1C(=O)c1ccccc1-3` the Potency was inconclusive: 10 µM [inhibitor, partial curve].
With `CC(C)C[C@H](N)c1nnc(S(=O)(=O)Cc2cccc(F)c2)o1` the Potency was inconclusive: 0.501 µM [inhibitor, full curve, poor fit].
`CCc1c(C)c2ccc(OCC(=O)OC)cc2oc1=O` was tested, and the Potency was active: 31.6 µM.
In the case of `Cc1ccccc1Cc1c(C)nc2c(C(=O)N3CCN(Cc4ccc5c(c4)OCO5)CC3)cnn2c1C`, the Potency is reported as inconclusive: 39.8 µM [inhibitor, single point].
In the case of `Cc1ccc(C(=O)CSc2nnc(COc3cccc(C)c3)o2)cc1`, the Potency is reported as inconclusive: 12.6 µM [inhibitor, partial curve].
With `Cn1c(=O)c2cc(S(=O)(=O)N3CCC(c4ccccc4)CC3)ccc2n(C)c1=O` the “activity change, negative = inhibition” value was inactive: 16.6%.
In the case of `Cc1nn(CCC(=O)O)c2nc(-c3cccnc3)cc(C(F)(F)F)c12`, the Potency is reported as active: 25.1 µM.
In the case of `O=C(NCCCN1CCCC1=O)c1ccc(Cl)c(NS(=O)(=O)c2ccc(F)cc2)c1`, the Potency is reported as inconclusive: 3.98 µM [inhibitor, single point].
In the case of `C[C@](N)(Cc1ccc(O)c(O)c1)C(=O)O`, the Potency is reported as active: 0.126 µM.
For `CCc1ccc(O)c(N=Cc2cccc(C)c2O)c1`, the Potency was active: 3.16 µM.
For `c1nc(NC2CC2)c2cc(-c3ccoc3)ccc2n1`, the Potency was inconclusive: 15.8 µM [inhibitor, partial curve].
For `Cc1cccn2c(=O)c3cc(C#N)c(=O)n(Cc4cccnc4)c3nc12`, the Potency was active: 7.94 µM.
In the case of `COc1ccccc1-c1cc(C(F)(F)F)nc(S(=O)(=O)CCCC(=O)NC(C)C)n1`, the “activity change, negative = inhibition” value is reported as inactive: -10.4%.
For `Cc1ccc(C)c(-n2c(N)c(C(N)=O)sc2=S)c1`, the Potency was inconclusive: 25.1 µM [inhibitor, single point].
In the case of `Cc1cc(C)c2c(C)nn(C3CCCCC3)c2n1`, the Potency is reported as inconclusive: 3.16 µM [inhibitor, single point].
`C=CCOc1ccccc1/C=c1\sc2nc(=O)c(C)nn2c1=O` was tested, and the Potency was active: 25.1 µM.
`CCOC(=O)c1nnc(-c2ccccc2)o1` was tested, and the “activity change, negative = inhibition” value was inactive: -0.69%.
With `N#Cc1ccc2ccn(CC(=O)N3CCCc4ccccc43)c2c1` the “activity change, negative = inhibition” value was inactive: -3.41%.
`COC(=O)c1ccc(C(NC(=O)OCc2ccccc2)/C(=C/[C@@H](C)C(=O)N(C)Cc2cccnc2)c2cccnc2)cc1` (some centres not stated) was tested, and the “activity change, negative = inhibition” value was inactive: 14.2%.
In the case of `CC(=O)OC1CC(C)(C)N(OC(=O)c2ccc(N)cc2)C(C)(C)C1`, the Potency is reported as inconclusive: 39.8 µM [inhibitor, single point].
For `CCOc1ccc2c(O)csc2c1`, the Potency was inconclusive: 31.6 µM [inhibitor, single point].
For `CCN(CC(=O)Nc1c(C(=O)OC)[nH]c2ccccc12)c1ccc2c(c1)OCO2`, the “activity change, negative = inhibition” value was inactive: -20.9%.
`NC(CSS(=O)(=O)O)=N[C@@H]1C[C@H]2CC[C@@H]1C2` was tested, and the Potency was inconclusive: 5.01 µM [inhibitor, partial curve].
For `O=S(=O)(NCCSc1nnnn1-c1ccccc1)c1cccs1`, the “activity change, negative = inhibition” value was inactive: -5.17%.
For `Cc1cc(=O)oc(C)c1C(=O)NCC1COc2ccccc2O1` (configuration not stated), the “activity change, negative = inhibition” value was inactive: -4.6%.
In the case of `COc1ccc(S(=O)(=O)N2CN(Cc3ccco3)c3nc4ccccc4nc32)cc1`, the “activity change, negative = inhibition” value is reported as inactive: -11.2%.
`O=C(Nc1ccc(-c2nc3ccccc3o2)c(O)c1)c1cc(-n2cnnc2)ccc1Cl` was tested, and the Potency was active: 25.1 µM.
In the case of `Nc1c(C(=O)NCc2cccnc2)sc(=S)n1-c1ccccc1`, the Potency is reported as active: 15.8 µM.
With `CC(C)C(=O)Nc1nnc(Cc2ccccc2)s1` the “activity change, negative = inhibition” value was inactive: 15.4%.
`CCOC(=O)c1ccc(NC(=O)CSc2nc(C)cc(=O)[nH]2)cc1` was tested, and the Potency was inconclusive: 25.1 µM [inhibitor, single point].
With `CC1=c2c(oc3cc(O)c(Nc4c(C)cc(O)cc4O)c(C)c23)=CC(=O)C1=Nc1c(C)cc(O)cc1O` the Potency was active: 3.16 µM.
With `CCOCCOC(=O)CCSc1n[nH]c(=O)[nH]c1=O` the Potency was inconclusive: 39.8 µM [inhibitor, single point].
For `O=C(Nc1c(C(=O)O)[nH]c2ccccc12)NC1CCCCC1`, the Potency was active: 31.6 µM.
For `CCOc1ccccc1Oc1coc2cc(O)ccc2c1=O`, the Potency was inconclusive: 39.8 µM [inhibitor, single point].
`CCOC(=O)c1c(NC(=O)CSc2nc(C)cc(C)c2C#N)sc(C(C)=O)c1C` was tested, and the Potency was inconclusive: 39.8 µM [inhibitor, single point].
`CC1(C)CC(=O)c2c(nc3ccccc3c2N)C1` was tested, and the Potency was active: 25.1 µM.
For `COc1cc(OC)c(C2CC(=O)N3CN(c4ccc(C)cc4)CSC3=C2C#N)cc1OC` (configuration not stated), the Potency was inconclusive: 0.794 µM [inhibitor, full curve].
In the case of `COc1ccc(CNC(=O)CN(c2cc(C)cc(C)c2)S(=O)(=O)c2c(C)noc2C)cc1`, the Potency is reported as inconclusive: 6.31 µM [inhibitor, single point].
`Cc1nn2c(c1-c1ccccc1)NC1=C(C(=O)CCC1)C2c1cccnc1` (configuration not stated) was tested, and the Potency was inconclusive: 39.8 µM [inhibitor, single point].
`CCCCSc1nnc(CCCCCNC(=O)OC(C)(C)C)o1` was tested, and the “activity change, negative = inhibition” value was inactive: 4.96%.
`Brc1ccccc1Cn1c(-c2cncs2)nc2ccccc21` was tested, and the “activity change, negative = inhibition” value was inactive: -13.7%.
In the case of `Cc1nnc(SCC(=O)Nc2nccs2)[nH]c1=O`, the Potency is reported as inconclusive: 15.8 µM [inhibitor, partial curve].
In the case of `Cn1c(SCc2nc3ccccc3c(=O)[nH]2)nnc1-c1ccco1`, the Potency is reported as inconclusive: 6.31 µM [inhibitor, single point].
In the case of `CCOC(=O)c1c(N)n(CCOC(=O)c2cccs2)c2nc3ccccc3nc12`, the Potency is reported as active: 31.6 µM.
In the case of `Cn1nc(-c2ccccc2)c2nc3ccccc3nc21`, the Potency is reported as inconclusive: 5.01 µM [inhibitor, single point].
In the case of `COc1ccccc1-c1ccc2ncnc(N(C)Cc3ccco3)c2c1`, the Potency is reported as inconclusive: 25.1 µM [inhibitor, single point].
`CC1(C)CC(=O)C=C(Nc2cc(-c3ccccc3)[nH]n2)C1` was tested, and the “activity change, negative = inhibition” value was inactive: -9.2%.
`IC(I)I` was tested, and the Potency was inconclusive: 39.8 µM [inhibitor, single point].
In the case of `Cc1cccc(-n2nnc(C(=O)NC3CCCc4ccccc43)c2N)c1` (configuration not stated), the “activity change, negative = inhibition” value is reported as inactive: 8.81%.
In the case of `c1ccc(SCc2nc(-c3ccncc3)no2)cc1`, the Potency is reported as inconclusive: 25.1 µM [inhibitor, partial curve].
`N#CC1=C(N)SC(N)=C(C#N)C1c1c(Cl)cccc1Cl` was tested, and the Potency was active: 3.16 µM.
In the case of `CN(C)[C@@H]1C(=O)C(C(N)=O)=C(O)[C@]2(O)C(=O)C3=C(O)c4c(O)ccc(Cl)c4[C@H](O)[C@H]3C[C@@H]12`, the Potency is reported as inconclusive: 2.51 µM [inhibitor, full curve].
For `N=C(N)c1ccc(N2CCN(C3CCN(CC(=O)O)CC3)CC2)cc1`, the “activity change, negative = inhibition” value was inactive: -11.9%.
With `NS(=O)(=O)c1ccc(N=Nc2c[nH]c(=O)c(O)c2)cc1` the Potency was inconclusive: 3.98 µM [inhibitor, partial curve].
For `CSc1nsc(SCC(=O)Nc2ccccn2)n1`, the “activity change, negative = inhibition” value was inactive: -18.1%.
For `O=C1[C@H]2[C@H]3[C@H](O)[C@H](O)C/C(=N/OCc4ccccc4)[C@H]3CC[C@@H]2C(=O)N1C[C@@H]1CCCO1`, the Potency was inconclusive: 7.94 µM [inhibitor, single point].
In the case of `Oc1c(C(O)(c2ccccc2)c2ccc3ccccc3c2O)ccc2ccccc12`, the Potency is reported as inconclusive: 3.98 µM [inhibitor, single point].
For `COc1ccc2[nH]c(=O)c(CN(C(=O)c3cccnc3)c3ccccc3OC)cc2c1`, the Potency was inconclusive: 39.8 µM [inhibitor, single point].
In the case of `CCOC(=O)c1cc(NC(=O)N2CCCCC2)c(C)nc1C`, the “activity change, negative = inhibition” value is reported as inactive: 10.7%.
For `Oc1ccc(-c2n[nH]c(=S)n2Cc2ccccc2)cc1`, the Potency was inconclusive: 31.6 µM [inhibitor, single point].
